According to article PMC4336329 (PLoS ONE, 2015):
About 14,000 (4.5%) of roughly 310,000 compounds showed an effect of 50% or more. The effect is printed as a negative number. Some of the results follow.

Molecular target: human ether-à-go-go-related gene (hERG) potassium channel (human, UniProt Q12809)
Experiment: primary screen, population patch clamp on CHO cells stably expressing hERG
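Also: peak tail current of the secondary pulse compared with the same well before compound.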

Sequence of human ether-à-go-go-related gene (hERG) potassium channel (Q12809 whole entry, looked up): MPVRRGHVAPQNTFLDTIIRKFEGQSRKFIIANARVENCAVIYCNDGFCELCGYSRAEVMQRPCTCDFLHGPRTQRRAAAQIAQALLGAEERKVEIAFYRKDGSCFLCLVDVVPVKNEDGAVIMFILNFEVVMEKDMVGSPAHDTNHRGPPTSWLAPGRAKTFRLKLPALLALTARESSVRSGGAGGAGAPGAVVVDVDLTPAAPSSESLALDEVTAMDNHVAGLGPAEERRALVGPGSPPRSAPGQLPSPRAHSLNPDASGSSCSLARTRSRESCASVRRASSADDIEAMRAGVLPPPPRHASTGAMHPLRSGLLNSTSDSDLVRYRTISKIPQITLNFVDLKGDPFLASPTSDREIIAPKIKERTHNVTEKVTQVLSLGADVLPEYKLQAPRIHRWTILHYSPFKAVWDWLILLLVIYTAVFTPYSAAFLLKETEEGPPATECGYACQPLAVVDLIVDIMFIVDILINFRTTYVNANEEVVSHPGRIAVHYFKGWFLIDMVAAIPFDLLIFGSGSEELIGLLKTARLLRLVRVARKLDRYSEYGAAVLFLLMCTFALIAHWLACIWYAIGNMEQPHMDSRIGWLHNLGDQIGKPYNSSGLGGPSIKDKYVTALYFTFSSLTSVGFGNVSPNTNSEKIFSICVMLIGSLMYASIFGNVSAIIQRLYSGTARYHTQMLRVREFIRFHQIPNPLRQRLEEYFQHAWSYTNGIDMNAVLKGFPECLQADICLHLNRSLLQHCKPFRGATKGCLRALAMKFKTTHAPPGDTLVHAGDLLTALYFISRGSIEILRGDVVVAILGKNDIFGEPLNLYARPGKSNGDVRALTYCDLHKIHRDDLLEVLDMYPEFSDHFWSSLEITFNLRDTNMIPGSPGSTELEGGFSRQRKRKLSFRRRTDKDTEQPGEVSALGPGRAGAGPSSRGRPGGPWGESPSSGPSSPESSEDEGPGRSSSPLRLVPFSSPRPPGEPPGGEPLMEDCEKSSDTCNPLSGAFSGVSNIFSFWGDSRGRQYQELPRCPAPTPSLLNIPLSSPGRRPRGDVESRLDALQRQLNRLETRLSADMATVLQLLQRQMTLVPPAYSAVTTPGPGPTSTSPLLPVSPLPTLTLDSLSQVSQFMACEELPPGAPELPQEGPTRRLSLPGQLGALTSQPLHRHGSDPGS

Row | Structure (SMILES) | hERG current change (%, negative = inhibition) at 10uM
1 | CC(=O)c1sc(NC(=O)c2c(F)cccc2F)nc1C | 1.74%
2 | CN1CCN(S(=O)(=O)c2cccc(C(=O)Nc3sccc3C#N)c2)CC1 | -5.03%
3 | COC/C=C/C1=CC2=CC(=O)C(C)(OC(=O)c3cnc4ccccc4n3)C(=O)C2=CN1CCc1c[nH]c2ccccc12 (stereo not drawn) | 16.5%
4 | Cc1cc(NC(=O)C2CCCC2)nc2c1c(=O)oc1ccccc12 | 5.43%
5 | O=C(CSc1nnc(COc2ccc3c(c2)CCCC3)o1)Nc1ccc(F)cc1 | 10.2%
6 | O=C1NC(=O)N(c2ccc3c(c2)OCO3)C(=O)/C1=C/c1ccc(N2CCCCC2)o1 | 9.86%
7 | O=C(NC(=S)Nc1ccc(S(=O)(=O)Nc2nccs2)cc1)C1CC1 | 8.94%
8 | Cc1ccc(C)c(Cn2c(CN(C)Cc3ccccc3)nc3c2c(=O)n(C)c(=O)n3C)c1 | -51.3%
9 | CCCCn1c(N)c(N(CCOC)C(=O)CN2C(=O)c3ccccc3C2=O)c(=O)[nH]c1=O | -5.53%
10 | O=C(Nc1ccc(F)cc1)c1ccc(-n2ccnc2)nc1 | -24.5%
11 | N=c1c(C(=O)NC2CCCC2)cc2c(=O)n3ccccc3nc2n1CCN1CCOCC1 | -91.9%
12 | COc1ccc(/C=N/NC(=O)C(C)n2cnc3ccccc3c2=O)cc1 (stereo not drawn) | -47.9%
13 | CCCc1nnc(NC(=O)c2cc(OC)cc(OC)c2)s1 | -4.25%
14 | C=CCSc1ncc(CO)n1Cc1ccccc1 | -5.58%
15 | COCCCC1CCN(C(=O)C2CCC(=O)N(Cc3cccc(F)c3)C2)CC1 (stereo not drawn) | 1.36%
16 | Nc1nonc1C(=O)NCCNC(=O)c1ccc(Cl)c(Cl)c1 | -11.1%
17 | CC(=O)N1CCN(C(=O)c2cc(S(=O)(=O)N3CCCCC3)ccc2Cl)CC1 | 9.6%
18 | C=CC[N+](C)(C)CCN1C(=O)C2C(c3ccccc3)C=CC(c3ccccc3)C2C1=O.[Br-] (stereo not drawn) | 7.96%
19 | Cc1ccc(NC(=O)CSCC(=O)NCCc2ccccc2)cc1 | 12.8%
20 | Cc1[nH]c(=O)[nH]c(=O)c1/C=N\NC(=O)CCc1ccc(OC(C)C)cc1 | 16.8%
21 | CC(=O)N1CCN(Cc2ccc(Br)s2)CC1 | -2.46%
22 | CCN(CC)c1ccc(NC(=O)CN(C)Cc2cccs2)cc1 | 6.07%
23 | CCc1c(C)sc2nc(C(C)C)nc(SCC(=O)N3CCc4ccccc4C3)c12 | -5.93%

Row | Structure (SMILES) | hERG current change (%, negative = inhibition) at 10uM
24 | CCOC(=O)c1c(NC(=O)c2cc(CC(C)C)on2)sc(C(C)=O)c1C | 18.2%
25 | Cc1nc2ccccn2c1C(=O)N/N=C/c1ccc([N+](=O)[O-])o1 | -64.1%
26 | CN(Cc1ccon1)Cc1cn(C)nc1-c1ccc2c(c1)OCCO2 | 11.2%
27 | COc1ccc(N2C(=O)CC(Nc3cccc([N+](=O)[O-])c3)C2=O)cc1 (stereo not drawn) | 2.97%
28 | CCN1C(=O)CC(NC2CCN(C(=O)c3ccc(F)cc3)CC2)C1=O (stereo not drawn) | 12.4%
29 | Cc1ccnc(NC(=O)C2COc3ccccc3O2)c1 (stereo not drawn) | 2.02%
30 | Cc1cccc(NC(=O)Cn2nc(C(F)(F)F)cc2C2CC2)c1 | -3.57%
31 | COc1ccc(Nc2ncnc3c2cnn3Cc2ccc(C)cc2)cc1 | -1.4%
32 | COCC(=O)N(C)c1nnc(-c2ccccn2)s1 | 4.23%
33 | C(=N\c1nccs1)/Nc1nccs1 | 7.61%
34 | CCN1CCN(CC(=O)c2cc(OC)c(OC)c(OC)c2)CC1 | 12.8%
35 | COc1ccccc1C(CNc1ncccc1[N+](=O)[O-])N(C)C (stereo not drawn) | -22%
36 | Cc1cccc(-c2nc3c(c(SCC(=O)N(C)C)n2)CCCC3)c1 | -21.5%
37 | NC(=O)c1nsc(C(=O)N(CC(=O)NCc2ccc3c(c2)OCO3)C2CCCCC2)c1N | -14.7%
38 | CCOC(=O)N1CCN(C(=O)c2ccc(CNS(=O)(=O)c3ccc(NC(C)=O)cc3)cc2)CC1 | 20.1%
39 | COc1ccccc1CNC(=O)CS(=O)Cc1nc(-c2ccccc2C)oc1C (stereo not drawn) | -1.32%
40 | O=C(C1CCCN(S(=O)(=O)c2cccs2)C1)N1CCC(N2CCCCC2)CC1 (stereo not drawn) | -61.7%
41 | Cc1ccc(NC(=S)NNc2ccc(C(=O)O)cc2[N+](=O)[O-])cc1C | 23.1%
42 | CC(C)c1ccc(NC(=O)c2ccc(NC3=NC4CS(=O)(=O)CC4S3)cc2)cc1 (stereo not drawn) | 5.9%
43 | COc1ccccc1C(=O)N/C(=C\c1cn(S(=O)(=O)N(C)C)c2ccccc12)C(=O)N1CCCCC1 | 13.5%
44 | COc1cc(NC(=O)c2ccc(-c3cccc([N+](=O)[O-])c3)o2)ccc1NC(=O)C(C)C | -5.61%
45 | CC(=O)c1ccc(NC(=S)N(CCCN(C)C)Cc2ccccc2)cc1 | -53.3%
